Measured values as given in the supplement of paper PMC10126150.
Values marked as one replicate rest on one cluster of the flow cell; about a third of the high ones do not repeat.

Tested on: ATP
Experiment: switch fluorescence ratio, 500 uM ATP over buffer (Cy3 cluster intensity, sum of 5 cycles each) (fold (ratio)); higher = stronger signal-on switching upon ATP binding; sequences stand for … in TCGTCGGCAGCGTCAGATGTGTATAAGAGACAGTTTTTTTTTTTTTTTTTTTTTTTTT…TC
Conditions: aptamer strand: ATP DNA aptamer (quencher-CACCTGGGGGAGTATTGCGGAGGAAGG + anchor), 100 nM annealed; ATP concentration: 500 uM; one replicate
In short: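 Cy3-labelled switching-strand clusters on a modified Illumina MiSeq flow-cell were annealed to 100 nM quencher-labelled ATP aptamer and imaged first in selection buffer, then after 15 min with 500 uM ATP at 22 °C. NaOH stripping and re-annealing separated each of five buffer/ATP cycles, and clusters outside 100-1000 RFU were excluded. The fluorescence ratio sums target-cycle Cy3 intensity over buffer-cycle Cy3 intensity per cluster and averages it per switch-domain sequence.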
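Also: ATP exposure 15 min at 22 °C before imaging.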

Sequence: GACTCGTATG
- switch fluorescence ratio: 1

Sequence: ATGTCGTTG
- switch fluorescence ratio: 0.97

Sequence: TCCTGCACGG
- switch fluorescence ratio: 1.04

Sequence: CGTTCGCCAT
- switch fluorescence ratio: 1.24

Sequence: TCTTGACTCG
- switch fluorescence ratio: 0.986

Sequence: CTCTTGTTT
- switch fluorescence ratio: 0.955

Sequence: TATATCGACT
- switch fluorescence ratio: 0.984

Sequence: ACTGCATCT
- switch fluorescence ratio: 1.11

Sequence: AAGTGAGAAT
- switch fluorescence ratio: 0.98

Sequence: CACGAAGAGA
- switch fluorescence ratio: 1.02

Sequence: CCACTTCTCA
- switch fluorescence ratio: 1.01

Sequence: GAGCCCGGTA
- switch fluorescence ratio: 1.04

Sequence: TCCTAAAGGG
- switch fluorescence ratio: 1.02

Sequence: TCGCTATTTT
- switch fluorescence ratio: 1.09

Sequence: GCCCGAACTT
- switch fluorescence ratio: 1.06

Sequence: GCCACTACTA
- switch fluorescence ratio: 1.09

Sequence: TTTAGCCCCC
- switch fluorescence ratio: 1.08

Sequence: TCACTCGTCG
- switch fluorescence ratio: 0.999

Sequence: GTGGTAGTAA
- switch fluorescence ratio: 0.959

Sequence: GCGCAGTTGG
- switch fluorescence ratio: 1.03

Sequence: TGGCCGGGTA
- switch fluorescence ratio: 0.969

Sequence: GTGGGCCTT
- switch fluorescence ratio: 0.992

Sequence: GACAGCGCCT
- switch fluorescence ratio: 1.04

Sequence: ACGTATCGGG
- switch fluorescence ratio: 1.03

Sequence: GCAAATGGAT
- switch fluorescence ratio: 1

Sequence: AAGATATTAA
- switch fluorescence ratio: 1

Sequence: TATGTAGTGG
- switch fluorescence ratio: 0.985

Sequence: ATTTTTCATC
- switch fluorescence ratio: 0.99

Sequence: TAATAACGGG
- switch fluorescence ratio: 1.03

Sequence: ATAAGACTCA
- switch fluorescence ratio: 1.01

Sequence: GTTGAGTCGT
- switch fluorescence ratio: 0.973

Sequence: CGTAGCGCAG
- switch fluorescence ratio: 1.02

Sequence: TCTGCGTAAC
- switch fluorescence ratio: 1.48

Sequence: GTATTAACCG
- switch fluorescence ratio: 0.994

Sequence: CGGATACGTC
- switch fluorescence ratio: 0.963

Sequence: AGTTGAGGTT
- switch fluorescence ratio: 0.991

Sequence: GGAATACAGG
- switch fluorescence ratio: 1.08

Sequence: ATTGCGACAT
- switch fluorescence ratio: 1

Sequence: CTAGCAGGGT
- switch fluorescence ratio: 1

Sequence: GGGGTCCCGA
- switch fluorescence ratio: 1

Sequence: GGGGTTTAAA
- switch fluorescence ratio: 0.984

Sequence: GTACTGATGG
- switch fluorescence ratio: 1.06

Sequence: GTGAGCTTAG
- switch fluorescence ratio: 1.05

Sequence: TCGGGTTTCG
- switch fluorescence ratio: 1.01

Sequence: CCTGGATCCC
- switch fluorescence ratio: 1.2

Sequence: CGTTGGCCTG
- switch fluorescence ratio: 1

Sequence: AGGACGTGAG
- switch fluorescence ratio: 0.915

Sequence: ACGACATCTC
- switch fluorescence ratio: 1.15

Sequence: CGTGTTCCTT
- switch fluorescence ratio: 1.01

Sequence: CATATGATCA
- switch fluorescence ratio: 1.03

Sequence: ATAGTATGAC
- switch fluorescence ratio: 1.05

Sequence: GGCGTATGGC
- switch fluorescence ratio: 1.03

Sequence: TAAATAACCA
- switch fluorescence ratio: 1.02

Sequence: TTCACGTTGG
- switch fluorescence ratio: 0.977

Sequence: AACTGTTGAC
- switch fluorescence ratio: 1.09

Sequence: GAAGGTCTCA
- switch fluorescence ratio: 1.01

Sequence: TTTTACCTCT
- switch fluorescence ratio: 1.28

Sequence: AGCGCTTG
- switch fluorescence ratio: 0.994

Sequence: GATATCCCGC
- switch fluorescence ratio: 1.13

Sequence: GCCGCTGCTA
- switch fluorescence ratio: 1.05

Sequence: AAGTCCGATG
- switch fluorescence ratio: 1.05

Sequence: CAGGGTCTT
- switch fluorescence ratio: 1.03

Sequence: TTTTCCACTT
- switch fluorescence ratio: 1.01

Sequence: GATAGGAGGC
- switch fluorescence ratio: 0.956

Sequence: CAGGTCAGTT
- switch fluorescence ratio: 0.983

Sequence: GCGGCAGGCA
- switch fluorescence ratio: 0.963

Sequence: ATAGGTGCTG
- switch fluorescence ratio: 1.15

Sequence: TCATTGGGAG
- switch fluorescence ratio: 1.05

Sequence: ATAGCACAAC
- switch fluorescence ratio: 1.55

Sequence: TTGATAGCCG
- switch fluorescence ratio: 0.999

Sequence: GCGCACGTCA
- switch fluorescence ratio: 1.06

Sequence: TATACCAGAC
- switch fluorescence ratio: 1.25

Sequence: ACCCAGTGTC
- switch fluorescence ratio: 1.67

Sequence: CGGCGTGCGG
- switch fluorescence ratio: 1

Sequence: TTCTGAAAG
- switch fluorescence ratio: 0.976

Sequence: GGTGGTGTAC
- switch fluorescence ratio: 1.29

Sequence: GGCTCCTTCG
- switch fluorescence ratio: 1.28

Sequence: TGTGCGTCAC
- switch fluorescence ratio: 0.998

Sequence: CGATGCACAG
- switch fluorescence ratio: 1.13

Sequence: TTCCCGTAAT
- switch fluorescence ratio: 2.11

Sequence: GAGATCAGGC
- switch fluorescence ratio: 0.961

Sequence: CATGATCA
- switch fluorescence ratio: 0.955

Sequence: ACCCCCTACA
- switch fluorescence ratio: 1.32

Sequence: AGAATCCCGG
- switch fluorescence ratio: 1.04

Sequence: ATGTTTTCGT
- switch fluorescence ratio: 0.97

Sequence: ACCGAGTGGG
- switch fluorescence ratio: 1.02

Sequence: TGATAGTCGG
- switch fluorescence ratio: 0.959

Sequence: ACCATAATAC
- switch fluorescence ratio: 3.46

Sequence: CATCAAAAG
- switch fluorescence ratio: 0.97

Sequence: CAGGGAAGTT
- switch fluorescence ratio: 1.02

Sequence: TGCAATCAGA
- switch fluorescence ratio: 1.01

Sequence: CGTGAGGCTA
- switch fluorescence ratio: 0.993

Sequence: ACAAATTTGG
- switch fluorescence ratio: 0.994

Sequence: GGCATCAGCA
- switch fluorescence ratio: 1.01

Sequence: ACACAAGAAT
- switch fluorescence ratio: 1.02

Sequence: TATGCATTTT
- switch fluorescence ratio: 0.998

Sequence: CTGCTGA
- switch fluorescence ratio: 1.02

Sequence: AGTTTACAT
- switch fluorescence ratio: 1.01

Sequence: GACGATCTTT
- switch fluorescence ratio: 1.04

Sequence: CTTTGGGGG
- switch fluorescence ratio: 0.937

Sequence: CGATACGGGA
- switch fluorescence ratio: 1.07

Sequence: ATCGTCTACT
- switch fluorescence ratio: 1.02

Sequence: TAAGTACGT
- switch fluorescence ratio: 1.2

Sequence: TGTAGGGGAT
- switch fluorescence ratio: 0.973

Sequence: AAGTGTTTGA
- switch fluorescence ratio: 1.01

Sequence: ACGAACAGAG
- switch fluorescence ratio: 1.3

Sequence: ACAAACAAAG
- switch fluorescence ratio: 1.02

Sequence: GTAAGCTCTA
- switch fluorescence ratio: 0.996

Sequence: AAAAGCAGAA
- switch fluorescence ratio: 1.07

Sequence: CTAGTTACTG
- switch fluorescence ratio: 1.06

Sequence: AGAGGTTCTT
- switch fluorescence ratio: 0.999

Sequence: AGACCCAGAT
- switch fluorescence ratio: 0.963

Sequence: CCATATATAT
- switch fluorescence ratio: 0.997

Sequence: CGTCCCCTTC
- switch fluorescence ratio: 1.07

Sequence: TTGAGTCTAA
- switch fluorescence ratio: 0.986

Sequence: AGCCGTGGGC
- switch fluorescence ratio: 0.98

Sequence: CATTGACTGC
- switch fluorescence ratio: 1.08

Sequence: TAGCGGGATG
- switch fluorescence ratio: 1.41

Sequence: TAAAAGTTCA
- switch fluorescence ratio: 0.992

Sequence: CCGCCCCGGG
- switch fluorescence ratio: 3.56

Sequence: GCCGTGTGGT
- switch fluorescence ratio: 0.988

Sequence: CGCGTCGACG
- switch fluorescence ratio: 0.97

Sequence: CAAAGCCAGT
- switch fluorescence ratio: 1.01

Sequence: AAATTGTGAG
- switch fluorescence ratio: 0.971

Sequence: AAAAAAGCCT
- switch fluorescence ratio: 1.02

Sequence: CCAGGTAGTG
- switch fluorescence ratio: 1.25

Sequence: CGGCTGCTCG
- switch fluorescence ratio: 1.02

Sequence: CTATAGTGTT
- switch fluorescence ratio: 1.03

Sequence: AGCTGACGGA
- switch fluorescence ratio: 1

Sequence: GATGCCCGG
- switch fluorescence ratio: 1.04

Sequence: GTGTTTTATC
- switch fluorescence ratio: 1.05

Sequence: GGTGGTTGGT
- switch fluorescence ratio: 0.983

Sequence: ATTCTATGGT
- switch fluorescence ratio: 0.991

Sequence: TTATATACCT
- switch fluorescence ratio: 1.04

Sequence: GTGTCTGAGA
- switch fluorescence ratio: 1.04

Sequence: CGCACCAAA
- switch fluorescence ratio: 1.06

Sequence: ACCCCTTCCC
- switch fluorescence ratio: 2.74

Sequence: TGAGGTATGG
- switch fluorescence ratio: 0.999

Sequence: AATGACATCC
- switch fluorescence ratio: 1.06

Sequence: ACACGGTGGA
- switch fluorescence ratio: 0.976

Sequence: AAGCGGGCGA
- switch fluorescence ratio: 1.07

Sequence: CGAGGAGTG
- switch fluorescence ratio: 0.97

Sequence: ACTGGAAAGG
- switch fluorescence ratio: 1.02

Sequence: TCGTTAGTGA
- switch fluorescence ratio: 1.01

Sequence: GATTGCCCAT
- switch fluorescence ratio: 1.01

Sequence: CGTACGGGGC
- switch fluorescence ratio: 1.11

Sequence: GGTATACATT
- switch fluorescence ratio: 1.07

Sequence: TGAGGGAATG
- switch fluorescence ratio: 1.02

Sequence: GACGACGTAG
- switch fluorescence ratio: 1.02

Sequence: CTATCGGGTG
- switch fluorescence ratio: 1.07

Sequence: TATTTGTCAG
- switch fluorescence ratio: 0.985

Sequence: CGGGAGTTAT
- switch fluorescence ratio: 1.04

Sequence: AAGCATTTGA
- switch fluorescence ratio: 1

Sequence: GCGTAAGCGT
- switch fluorescence ratio: 1.02

Sequence: AAACTGTGTG
- switch fluorescence ratio: 0.97

Sequence: CCACGGCAAC
- switch fluorescence ratio: 6.06

Sequence: TGTGTAGAA
- switch fluorescence ratio: 0.988
